Experimental data: ChEMBL document CHEMBL4888484, “Replenishing the malaria drug discovery pipeline: Screening and hit evaluation of the MMV Hit Generation Library 1 (HGL1) against asexual blood stage Plasmodium falciparum ,using a nano luciferase reporter read-out” (2022)
Several values for one entry are separate records, joined by “and”; a condition that tells them apart may be missing. Identical values can stand only once. Screen size: about 150,000 compounds; about 540 (0.36%) showed an effect of 50% or more. This is one part of the list.

System: Plasmodium falciparum
Test: Primary screen in NF54 nanoGlo assay, in single point, at 2uM, 72h; a lower Z score goes with more inhibition
Assay type: functional, Erythrocyte
Details: timepoint 72 hour

| SMILES | % Inhibition [%] | Z score | % Inhibition (2 µM) |
| --- | --- | --- | --- |
| Cc1cc(Cl)cc2c(=O)n(CC[C@H]3CCCN3C)cnc12 | 0 | -0.07 | – |
| COc1cccc([C@H]2C[C@@H]2C(=O)NC(C)c2cn[nH]c2)c1 (some centres undefined) | -2 | 0.22 | – |
| Cn1ccc(CN2CCc3ccccc32)cc1=O | 6 | -0.67 | – |
| CN(CC1CCCCC1O)c1ncc(Br)cn1 (centres undefined) | -6 | 1.02 | – |
| COCCN(Cc1ccc2c(ccn2C)c1)CC1CC1 | 13 | -1.72 | – |
| CCCCc1nc(C)sc1C(=O)NC1CCN(C(=O)c2cc3ccccc3[nH]2)CC1 | -10 | 1.18 | – |
| CCOCC(C)(C)NC(=O)N[C@@H](CO)c1ccccc1 | 3 | -0.48 | – |
| COc1ccc(S(=O)(=O)N2CCC[C@H]2c2noc(COc3ccc(C)cc3)n2)cc1 | 5 | -0.7 | – |
| CC1CC1NC(=O)CC1CCCCC(=O)N1 (centres undefined) | -11 | 2.27 | – |
| Cn1cc(C(=O)N2CC[C@](C)(C(=O)O)C2)c2ccccc21 | -6 | 0.52 | – |
| N#Cc1nn(Cc2csc(COc3ccc(Cl)cc3)n2)c2ccccc12 | -4 | 0.46 | – |
| O=C1C2CCCCC2C(=O)N1c1ccn(Cc2cccc(F)c2)n1 (centres undefined) | 1 | -0.14 | – |
| O=C(c1coc(CN2CCN(Cc3ccc(F)c(F)c3)CC2)n1)N1CCN(c2ccccc2)CC1 | -10 | 1.19 | – |
| CCNC(=O)NC1CN(CCc2scnc2C)C[C@@H]1OC (some centres undefined) | -8 | 0.66 | – |
| CCOc1cccc(CN(C(=O)OC(C)(C)C)C2CCC(C(=O)N3CCO[C@@H](COCc4ccccc4F)C3)CC2)c1 (some centres undefined) | 1 | -0.14 | – |
| OC1(Cc2nc(Cc3cc(Br)ccc3F)no2)CCC1 | -1 | 0.11 | – |
| O=C(c1ncccc1Br)N1CCOC2CCCCC21 (centres undefined) | 2 | -0.27 | – |
| Cc1c[nH]c(C(=O)N2C[C@@H](CN3C[C@@H](C)O[C@@H](C)C3)[C@@H](CO)C2)c1 | -9 | 1.62 | – |
| CC[C@H]1c2ccccc2CN1C(=O)Cn1ccc(=O)[nH]c1=O | -10 | 1.36 | – |
| O=C(c1cccc(F)c1F)N1CCc2[nH]c(-c3ccc(F)cc3F)nc2C1 | -7 | 1.31 | – |
| CNC(=O)CCN(C)C(=O)c1coc(-c2ccnc(C)c2)n1 | -14 | 2.45 | – |
| Cc1ccc2c(Nc3ccc(Br)cc3)c(C(=O)N3CCC(C)CC3)cnc2n1 | -4 | 0.55 | – |

| SMILES | % Inhibition [%] | Z score | % Inhibition (2 µM) |
| --- | --- | --- | --- |
| CCC(C)NC(=O)C(NC(=O)c1cccc(OC)c1)C1CCN(S(=O)(=O)c2ccc(C)cc2)CC1 (centres undefined) | 2 | -0.47 | – |
| Cc1cc([C@@H](C#N)c2ccc(Cl)cc2)c(Cl)cc1NC(=O)c1ccccc1 | -5 | 0.99 | – |
| COc1ccnc(N[C@H]2CCCCN(C(=O)C3CCCC3)C2)n1 | -11 | 1.4 | – |
| Cc1nn2c(NC(=O)[C@]3(C)CCCO3)csc2nc1=O | -9 | 1.77 | – |
| C[C@H](NCCn1cccn1)C(=O)N1CCCCC1 | 3 | -0.33 | – |
| CN(C(=O)CN1CCC[C@H]1c1nnc2ccccn12)c1ccccc1 | 1 | -0.16 | – |
| C=CC[C@]1(C(=O)O)CCCN(Cc2c(C)nn(CC)c2C)C1 | -6 | 1 | – |
| COc1ccccc1NC(=O)CC(F)(F)F | -6 | 0.85 | – |
| CCc1nc([C@H](C)NC(=O)Nc2ncnn2C)cs1 | 7 | -1.01 | – |
| O=C(NS(=O)(=O)Cc1cccc2ncccc12)[C@H]1CC[C@H](c2ccccc2)C1 | 2 | -0.21 | – |
| Fc1cc(-c2ccco2)ccc1NC1CCOCC1 | 4 | -0.65 | – |
| Cc1ccc(C(=O)N(C)c2ccc3c(c2)CCO3)cc1N | -7 | 0.98 | – |
| O=C(O)CCC(=O)NC1=NN2C(=NC(c3ccccc3)=C[C@H]2c2ccc(Cl)cc2)N1 | -39 | 4.56 | – |
| CC[C@@H](CO)N(Cc1ccsc1)Cc1cc(C(C)(C)C)[nH]n1 | 3 | -0.39 | – |
| CN(C)c1ccc(CNC(=O)c2cccc(-n3cnnn3)c2)cc1F | -3 | 0.59 | – |
| COc1ccccc1/C=C/CN1C[C@H]2CC[C@@H](C1)NC2 | -1 | 0.1 | – |
| CN=C(NOCc1ccccc1)c1nonc1N | -8 | 1.44 | – |
| Cn1ncnc1NC(=O)c1c(O)cccc1F | -9 | 1.63 | – |
| Cc1cccc(NC(=O)C(C)N2CCC3OCCCC3C2)c1C (centres undefined) | -12 | 1.27 | – |
| CCOC1CC(NC(=O)N2CCC3(CCOC3)C2)C12CCC2 (centres undefined) | -6 | 0.95 | – |
| COC(=O)N1CC(NC(=O)N(C)c2ccc(F)cc2)C1 | -12 | 1.53 | – |
| Cc1noc([C@H](C)NC(=O)c2cccn2C2CC2)n1 | -9 | 1.12 | – |

| SMILES | % Inhibition [%] | Z score | % Inhibition (2 µM) |
| --- | --- | --- | --- |
| C[C@H](NS(=O)(=O)c1ccc2c(c1)OCCCO2)C(=O)NC1CCCCCC1 | -6 | 0.83 | – |
| Cc1ccccc1S(=O)(=O)N(CCC(=O)N1CCNCC1)CCC(C)C | 0 | -0.08 | – |
| O=C(CCc1c[nH]c2ccccc12)N1CCC[C@H]1c1nnc2ccccn12 | -6 | 1.06 | – |
| Cc1cc(C)n2ncc(CN3CC[C@H](c4sccc4C)[C@@H](O)C3)c2n1 | -1 | 0.17 | – |
| Cc1cc(C(=O)NC[C@@](C)(O)Cc2ccco2)c(C)o1 | -2 | 0.22 | – |
| Cc1cccc(-c2nc3cc4sc(-c5cccc(C)c5)nc4cc3s2)c1 | -3 | 0.36 | – |
| Cc1nc(CNC(=O)C(=O)Nc2ccc3[nH]ncc3c2)cs1 | -11 | 1.72 | – |
| c1cc(C2CN(c3cc(N4CCOCC4)ncn3)C2)ccn1 | -8 | 1.02 | – |
| Cc1cccc(Oc2c(CCC(=O)NCc3cccnc3)c(C)nn2-c2ccccc2C)c1 | -15 | 2.91 | – |
| Cc1nn(C)c2nc(-c3ccncc3)nc(N3CCC[C@H](C(N)=O)C3)c12 | -10 | 1.73 | – |
| Cc1cccc(C)c1NCC(=O)N1CCC(C(=O)NC2CC2)CC1 | 6 | -0.78 | – |
| O=C(OCC(=O)N1CCCCCC1)c1cnn(-c2ccncc2)c1C(F)F | -10 | 1.86 | – |
| Cc1cnc(CN2CCO[C@H](c3nc(C(C)C)n[nH]3)C2)o1 | -1 | 0.05 | – |
| COc1cnc(C2(NC(=O)CC[C@H]3CCCO3)CCCC2)[nH]c1=O | -8 | 0.86 | – |
| COC(=O)C[C@H](NC(=O)Cc1cccc(C)c1)C1CC1 | -10 | 1.97 | – |
| c1ccc(-c2nnn[nH]2)c(NCc2ccc3c(c2)OCO3)c1 | -10 | 1.2 | – |
| O=C(Nc1n[nH]c(Cc2cccc(F)c2)n1)[C@@H]1CCCO1 | -10 | 1.03 | – |
| O=S(=O)(Nc1ccccc1)c1ccc(-c2nnc(C3CCC3)o2)s1 | 6 | -1.18 | – |
| O=C(O)c1cnc(N2CCC[C@H]2c2ncc[nH]2)c(Cl)c1 | -10 | 1.27 | – |
| NC(=O)c1ncc(NC(=O)[C@H]2CC2(Cl)Cl)s1 | -15 | 2.38 | – |
| CN(Cc1ccco1)C(=O)c1ccc2nccnc2c1 | -6 | 0.7 | – |
| Cc1ccc(S(=O)(=O)N2CCN(C(=O)c3cscn3)[C@@H](C)C2)o1 | -9 | 1.2 | – |

| SMILES | % Inhibition [%] | Z score | % Inhibition (2 µM) |
| --- | --- | --- | --- |
| Cc1ccc(S(=O)(=O)Nc2ccc3c(c2)COC3=O)c(C)c1 | -6 | 0.9 | – |
| COC(=O)N1CCN(C(=O)CCc2scnc2C)CC1 | -17 | 3.3 | – |
| FC(F)(c1nc(-c2cscn2)no1)C1CCOCC1 | -6 | 1.13 | – |
| Cc1ccc(Cc2ccccc2C(=O)N(CCO)Cc2cccs2)cc1 | 13 | -2.8 | – |
| Cc1cnc(C(=O)N2CC3(C[C@@H](c4nc(-c5cccnc5)no4)N(C)C3)C2)cn1 | 5 | -0.59 | – |
| CN(C)[C@@H]1C[C@@H](O)[C@H](CO)[C@H]1Cc1ccnc(-c2ccccc2F)n1 | 4 | -0.52 | – |
| CC(C)c1ccc(N2C(=O)N[C@@H](CC(=O)N3CCN(S(=O)(=O)C(C)C)CC3)C2=O)cc1 | – | – | -2% and -6% |
| COc1cc(CN2CC[C@@]3(CCCNC3)C2)ccc1F | -18 | 2.28 | – |
| N#Cc1ccc(F)c(COC(=O)c2cc(S(=O)(=O)N3CCCC3)c[nH]2)c1 | -7 | 0.97 | – |
| N#CCN(C(=O)CCCc1c[nH]c2ccccc12)C1CC1 | -16 | 2.67 | – |
| C#CCN(C)S(=O)(=O)C1Cc2ccccc2C1 | -7 | 0.95 | – |
| CC12CCN(C(=O)Cc3ccnc(O)c3Br)CC1C2(F)F (centres undefined) | -2 | 0.27 | – |
| COc1ccc(CCN2C(=O)[C@H]3[C@@H](C2=O)[C@]2(C(=O)Nc4ccccc42)N2CCC[C@@H]32)cc1OC | -9 | 1.22 | – |
| O=C1CC[C@H](C(=O)Nc2cnn(-c3cccc(C(F)(F)F)c3)c2)N1 | -8 | 1.06 | – |
| CCCN1CCC(N2CCN(S(=O)(=O)c3ccc(Cl)cc3)CC2)CC1 | -12 | 1.79 | – |
| C=CCn1c(=O)c2sc(N3CCCCC3)nc2n(CC(=O)Nc2cc(Cl)ccc2C)c1=O | -43 | 3.8 | – |
| CN(CCN1CCCCC1)c1cccc(C#N)n1 | 1 | -0.14 | – |
| O=C1[C@@H]2C[C@@H](CN2CC2CCCCC2)N1c1ccccc1Cl | -3 | 0.46 | – |
| CCOC1(CNC(=O)N[C@H]2CCn3ccnc32)CCCC1 | 2 | -0.34 | – |
